# This is one part of the list.
# Columns and labels:
# Experiment in all cases: glycan array binding signal (z-score within array); higher = stronger binding
# Details in all cases: glycan notation: IUPAC condensed, linker removed
# [1] = biological target: Gal(b1-3)GlcNAc(b1-6)[Gal(b1-3)]GalNAc
# Summary of the method: (§1)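 Glycan array data were curated from 3228 arrays in the Consortium for Functional Glycomics database and kept only where the protein sequence was available. Glycan names were converted to IUPAC-condensed notation, and columns mapping to the same glycan were averaged. The binding signal is a within-array Z-score, averaged across arrays of the same protein sequence at different concentrations or buffers and across linkers. Negative Z-scores can be read as non-binding.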
# Gal(b1-3)GlcNAc6S = biological target: Gal(b1-3)GlcNAc6S
# Summary of the method: as §1
# [2] = biological target: Gal(b1-3)[Fuc(a1-4)]GlcNAc
# Summary of the method: as §1
# [3] = biological target: Gal(b1-3)[Fuc(a1-4)]GlcNAc(b1-2)Man
# Summary of the method: as §1
# [4] = biological target: Gal(b1-3)[Fuc(a1-4)]GlcNAc(b1-2)Man(a1-3)[Gal(b1-3)[Fuc(a1-4)]GlcNAc(b1-2)Man(a1-6)]Man(b1-4)GlcNAc(b1-4)[Fuc(a1-6)]GlcNAc
# Summary of the method: as §1
# [5] = biological target: Gal(b1-3)[Fuc(a1-4)]GlcNAc(b1-3)Gal(b1-3)[Fuc(a1-4)]GlcNAc
# Summary of the method: as §1
# [6] = biological target: Gal(b1-3)[Fuc(a1-4)]GlcNAc(b1-3)Gal(b1-4)[Fuc(a1-3)]GlcNAc
# Summary of the method: as §1
# [7] = biological target: Gal(b1-3)[Fuc(a1-4)]GlcNAc(b1-6)GalNAc
# Summary of the method: as §1
# [8] = biological target: Gal(b1-3)[GlcNAc(b1-6)]GalNAc
# Summary of the method: as §1
# [9] = biological target: Gal(b1-3)[Neu5Ac(a2-6)]GalNAc
# Summary of the method: as §1
# [10] = biological target: Gal(b1-3)[Neu5Ac(a2-6)]GlcNAc(b1-4)Gal(b1-4)Glc
# Summary of the method: as §1
# [11] = biological target: Gal(b1-3)[Neu5Ac(b2-6)]GalNAc
# Summary of the method: as §1
# Gal(b1-4)Gal = biological target: Gal(b1-4)Gal
# Summary of the method: as §1
# [12] = biological target: Gal(b1-4)GalNAc(a1-3)[Fuc(a1-2)]Gal(b1-4)GlcNAc
# Summary of the method: as §1
# [13] = biological target: Gal(b1-4)GalNAc(b1-3)[Fuc(a1-2)]Gal(b1-4)GlcNAc
# Summary of the method: as §1
# Gal(b1-4)Glc = biological target: Gal(b1-4)Glc
# Summary of the method: as §1
# Gal(b1-4)Glc6S = biological target: Gal(b1-4)Glc6S
# Summary of the method: as §1
# Gal(b1-4)GlcNAc = biological target: Gal(b1-4)GlcNAc
# Summary of the method: as §1
# [14] = biological target: Gal(b1-4)GlcNAc(a1-6)Gal(b1-4)GlcNAc
# Summary of the method: as §1
# Gal(b1-4)GlcNAc(b1-2)Man = biological target: Gal(b1-4)GlcNAc(b1-2)Man
# Summary of the method: as §1
# [15] = biological target: Gal(b1-4)GlcNAc(b1-2)Man(a1-3)Man(b1-4)GlcNAc(b1-4)GlcNAc
# Summary of the method: as §1
# [16] = biological target: Gal(b1-4)GlcNAc(b1-2)Man(a1-3)[Gal(b1-4)GlcNAc(b1-2)Man(a1-6)]Man(b1-4)GlcNAc(b1-4)GlcNAc
# Summary of the method: as §1
# [17] = biological target: Gal(b1-4)GlcNAc(b1-2)Man(a1-3)[Gal(b1-4)GlcNAc(b1-2)Man(a1-6)]Man(b1-4)GlcNAc(b1-4)[Fuc(a1-6)]GlcNAc
# Summary of the method: as §1
# [18] = biological target: Gal(b1-4)GlcNAc(b1-2)Man(a1-3)[Gal(b1-4)GlcNAc(b1-2)Man(a1-6)][Gal(b1-4)GlcNAc(b1-4)]Man(b1-4)GlcNAc(b1-4)[Fuc(a1-6)]GlcNAc
# Summary of the method: as §1
# [19] = biological target: Gal(b1-4)GlcNAc(b1-2)Man(a1-3)[Gal(b1-4)GlcNAc(b1-2)Man(a1-6)][GlcNAc(b1-4)]Man(b1-4)GlcNAc(b1-4)[Fuc(a1-6)]GlcNAc
# Summary of the method: as §1
# [20] = biological target: Gal(b1-4)GlcNAc(b1-2)Man(a1-3)[GlcNAc(b1-2)Man(a1-6)]Man(b1-4)GlcNAc(b1-4)GlcNAc
# Summary of the method: as §1
# [21] = biological target: Gal(b1-4)GlcNAc(b1-2)Man(a1-3)[GlcNAc(b1-4)][Gal(b1-4)GlcNAc(b1-2)Man(a1-6)]Man(b1-4)GlcNAc(b1-4)GlcNAc
# Summary of the method: as §1
# [22] = biological target: Gal(b1-4)GlcNAc(b1-2)Man(a1-3)[Man(a1-6)]Man(b1-4)GlcNAc(b1-4)GlcNAc
# Summary of the method: as §1
# [23] = biological target: Gal(b1-4)GlcNAc(b1-2)Man(a1-6)Man(b1-4)GlcNAc(b1-4)GlcNAc
# Summary of the method: as §1
# [24] = biological target: Gal(b1-4)GlcNAc(b1-2)Man(a1-6)[GlcNAc(b1-2)Man(a1-3)]Man(b1-4)GlcNAc(b1-4)GlcNAc
# Summary of the method: as §1
# [25] = biological target: Gal(b1-4)GlcNAc(b1-2)Man(a1-6)[Man(a1-3)]Man(b1-4)GlcNAc(b1-4)GlcNAc
# Summary of the method: as §1
# [26] = biological target: Gal(b1-4)GlcNAc(b1-2)[Gal(b1-4)GlcNAc(b1-4)]Man(a1-3)[Gal(b1-4)GlcNAc(b1-2)Man(a1-6)]Man(b1-4)GlcNAc(b1-4)GlcNAc
# Summary of the method: as §1
# [27] = biological target: Gal(b1-4)GlcNAc(b1-2)[Gal(b1-4)GlcNAc(b1-4)]Man(a1-3)[Gal(b1-4)GlcNAc(b1-2)[Gal(b1-4)GlcNAc(b1-6)]Man(a1-6)]Man(b1-4)GlcNAc(b1-4)GlcNAc
# Summary of the method: as §1
# [28] = biological target: Gal(b1-4)GlcNAc(b1-2)[Gal(b1-4)GlcNAc(b1-4)]Man(a1-3)[GlcNAc(b1-4)][Gal(b1-4)GlcNAc(b1-2)Man(a1-6)]Man(b1-4)GlcNAc(b1-4)GlcNAc
# Summary of the method: as §1
# [29] = biological target: Gal(b1-4)GlcNAc(b1-2)[Gal(b1-4)GlcNAc(b1-4)]Man(a1-3)[GlcNAc(b1-4)][Gal(b1-4)GlcNAc(b1-2)[Gal(b1-4)GlcNAc(b1-6)]Man(a1-6)]Man(b1-4)GlcNAc(b1-4)GlcNAc
# Summary of the method: as §1
# [30] = biological target: Gal(b1-4)GlcNAc(b1-2)[Gal(b1-4)GlcNAc(b1-6)]Man(a1-6)[Gal(b1-4)GlcNAc(b1-2)Man(a1-3)]Man(b1-4)GlcNAc(b1-4)GlcNAc
# Summary of the method: as §1
# [31] = biological target: Gal(b1-4)GlcNAc(b1-2)[Gal(b1-4)GlcNAc(b1-6)]Man(a1-6)[Gal(b1-4)GlcNAc(b1-2)Man(a1-3)]Man(b1-4)GlcNAc(b1-4)[Fuc(a1-6)]GlcNAc
# Summary of the method: as §1
binder,measurement,setting,value
PX14343B-bfa-546-20-546 (Bacteroides fragilis) (protein) CDLERYPLTDLSEETFWNSESNAELALTSLYRGSLTDGVEYNPSDWWSYHGMIMMEHLSDNAFDRRGENNPFFKISSGNLTADNAFIKRYWETSYKRIGYCNRFLVGIQNSSESEKKTRMIAEARFLRATQYFYLASYFKNVPLVENVLTGEEANNVTKTSQADILKWCVTEFTAAAADLPRFSAIPAGEAGRACKQAALAFLGRTCMLQKDWKSGAKAFHDIMELGDNAINANYQELFYPSTGTSNKENIFYIQYLENYLGTGLPQHALSAKDGGWSLVNPAADLYESYEFKDGTPFSYDDPRYDPSNLGKDRDPRLDYTIYYNGAIFMGTEYKMSPDYSAAKKEKLDYTSEASRTGFMMRKYFEESTPINDVQSANGLTPVIRYAEVLLGYLECLVEDNQTITQGILDETINAVRGRASVNMPPVTEVTPAKLREIVRHERRIELAMEGIRYWDIMRWGIAHEVLSQKIWGAPYPGSTQYATTTKEVDPTGNYRWYVGKRAFRNPTDYTWPIPQSEQNINPNLRD,glycan array binding signal (z-score),[1],-0.108
same,glycan array binding signal (z-score),Gal(b1-3)GlcNAc6S,-0.123
same,glycan array binding signal (z-score),[2],-0.115
same,glycan array binding signal (z-score),[3],-0.115
same,glycan array binding signal (z-score),[4],-0.104
same,glycan array binding signal (z-score),[5],-0.123
same,glycan array binding signal (z-score),[6],-0.11
same,glycan array binding signal (z-score),[7],-0.109
same,glycan array binding signal (z-score),[8],-0.12
same,glycan array binding signal (z-score),[9],-0.121
same,glycan array binding signal (z-score),[10],-0.119
same,glycan array binding signal (z-score),[11],-0.119
same,glycan array binding signal (z-score),Gal(b1-4)Gal,-0.114
same,glycan array binding signal (z-score),[12],-0.119
same,glycan array binding signal (z-score),[13],-0.137
same,glycan array binding signal (z-score),Gal(b1-4)Glc,-0.121
same,glycan array binding signal (z-score),Gal(b1-4)Glc6S,-0.113
same,glycan array binding signal (z-score),Gal(b1-4)GlcNAc,-0.128
same,glycan array binding signal (z-score),[14],-0.116
same,glycan array binding signal (z-score),Gal(b1-4)GlcNAc(b1-2)Man,-0.112
same,glycan array binding signal (z-score),[15],-0.117
same,glycan array binding signal (z-score),[16],-0.117
same,glycan array binding signal (z-score),[17],-0.125
same,glycan array binding signal (z-score),[18],-0.113
same,glycan array binding signal (z-score),[19],-0.117
same,glycan array binding signal (z-score),[20],-0.128
same,glycan array binding signal (z-score),[21],-0.122
same,glycan array binding signal (z-score),[22],-0.12
same,glycan array binding signal (z-score),[23],-0.118
same,glycan array binding signal (z-score),[24],-0.125
same,glycan array binding signal (z-score),[25],-0.129
same,glycan array binding signal (z-score),[26],-0.126
same,glycan array binding signal (z-score),[27],-0.125
same,glycan array binding signal (z-score),[28],-0.12
same,glycan array binding signal (z-score),[29],-0.081
same,glycan array binding signal (z-score),[30],-0.128
same,glycan array binding signal (z-score),[31],-0.104
